Results: the supplement of paper PMC7125110
± gives the standard error. Variants at the background level are over-represented here.

B1: glmS ribozyme (parent)
chain: AUAAAAGCGCCAGAACUACAGAAAUGUAGUUGACGAGGAGGAGGUUUAUCGAAUUUUCGGCGGAUGCCUCCAAA

What was measured:
Settings in all cases: with glucosamine-6-phosphate
glucosamine-6-phosphate [1] = variants of: B1; assay: self-cleavage kobs at 40 uM GlcN6P; higher = faster cleavage; RNA array
Procedure, shortened: (§1)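 Weighted Michaelis–Menten fits across concentrations supplied kcat and KM, based on kobs from one- or two-exponential decay fits to normalised per-tile medians. The data came from barcoded ribozyme variants transcribed in situ by E. coli RNA polymerase on sequenced MiSeq chips and tracked at 37 °C by a hybridised Cy3 probe. Glucosamine-6-phosphate (40 μM to 10 mM) in HEPES/KCl/Mg(OAc)2 buffer was flowed in.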

glucosamine-6-phosphate [2] = variants of: B1; assay: self-cleavage kobs at 640 uM GlcN6P; higher = faster cleavage; RNA array
Procedure, shortened: as §1

glucosamine-6-phosphate [3] = variants of: B1; assay: self-cleavage kobs at 10000 uM GlcN6P; higher = faster cleavage; RNA array
Procedure, shortened: as §1

glucosamine-6-phosphate [4] = variants of: B1; assay: self-cleavage kobs at 160 uM GlcN6P; higher = faster cleavage; RNA array
Procedure, shortened: as §1

glucosamine-6-phosphate [5] = variants of: B1; assay: self-cleavage kobs at 2500 uM GlcN6P; higher = faster cleavage; RNA array
Procedure, shortened: as §1

Variant | self-cleavage kobs at 40 uM GlcN6P (glucosamine-6-phosphate [1]) | self-cleavage kobs at 640 uM GlcN6P (glucosamine-6-phosphate [2]) | self-cleavage kobs at 10000 uM GlcN6P (glucosamine-6-phosphate [3]) | self-cleavage kobs at 160 uM GlcN6P (glucosamine-6-phosphate [4]) | self-cleavage kobs at 2500 uM GlcN6P (glucosamine-6-phosphate [5])
G51C C68A | < 1e-05 s⁻¹ | – | – | – | –
U55G G60A | < 1e-05 s⁻¹ | – | – | – | –
C61G U65G | < 1e-05 s⁻¹ | < 1e-05 s⁻¹ | < 1e-05 s⁻¹ | – | –
C61U A64G C70G | < 1e-05 s⁻¹ | – | – | – | –
U55A C70G | 3.74e-05 ± 7.5e-06 s⁻¹ | 0.000148 ± 1.6e-05 s⁻¹ | 0.000101 ± 9.9e-06 s⁻¹ | 0.000102 ± 1.2e-05 s⁻¹ | 0.000117 ± 1.2e-05 s⁻¹
U46A G62U | < 1e-05 s⁻¹ | < 1e-05 s⁻¹ | < 1e-05 s⁻¹ | < 1e-05 s⁻¹ | < 1e-05 s⁻¹
G44A C68U | < 1e-05 s⁻¹ | – | – | – | –
A48G U69A | < 1e-05 s⁻¹ | – | – | – | –
U47C G51C | < 1e-05 s⁻¹ | – | – | < 1e-05 s⁻¹ | < 1e-05 s⁻¹
U45C G60U | < 1e-05 s⁻¹ | < 1e-05 s⁻¹ | < 1e-05 s⁻¹ | < 1e-05 s⁻¹ | –
G43A C67G C68G | 5.46e-05 ± 1.7e-05 s⁻¹ | 0.000155 ± 4.7e-05 s⁻¹ | 7.38e-05 ± 1.4e-05 s⁻¹ | – | 6.83e-05 ± 1.7e-05 s⁻¹
G43C A48C | < 1e-05 s⁻¹ | < 1e-05 s⁻¹ | < 1e-05 s⁻¹ | < 1e-05 s⁻¹ | < 1e-05 s⁻¹
G44A A48U | < 1e-05 s⁻¹ | < 1e-05 s⁻¹ | – | < 1e-05 s⁻¹ | –
A48U G63U C68U C70G | < 1e-05 s⁻¹ | – | – | – | –
U49A C58A | < 1e-05 s⁻¹ | < 1e-05 s⁻¹ | – | < 1e-05 s⁻¹ | –
U47G A52U U69G | 4.05e-05 ± 1.5e-05 s⁻¹ | – | 3.79e-05 ± 1.3e-05 s⁻¹ | – | –
G44U G59C | < 1e-05 s⁻¹ | < 1e-05 s⁻¹ | < 1e-05 s⁻¹ | < 1e-05 s⁻¹ | < 1e-05 s⁻¹
G44U G59A | < 1e-05 s⁻¹ | < 1e-05 s⁻¹ | < 1e-05 s⁻¹ | < 1e-05 s⁻¹ | < 1e-05 s⁻¹
G43A U56G | < 1e-05 s⁻¹ | – | 3.58e-05 ± 9e-06 s⁻¹ | – | –
C58U C70U | < 1e-05 s⁻¹ | – | – | – | –
A53G C67A | 0.000314 ± 3.3e-05 s⁻¹ | 0.00067 ± 0.00014 s⁻¹ | 0.00957 ± 0.0018 s⁻¹ | – | 0.000612 ± 0.00025 s⁻¹
G44U A53C C68U | < 1e-05 s⁻¹ | – | – | – | –
U46C A48C U49C U54C G66U | < 1e-05 s⁻¹ | – | – | – | –
